In publication PMC4336329 (PLoS ONE, 2015):
Screen size: about 310,000 compounds; about 14,000 (4.5%) showed an effect of 50% or more. Effects have a minus sign here. The list shows a part of the results.

Target: human ether-à-go-go-related gene (hERG) potassium channel (human, UniProt Q12809)
Test: primary screen, population patch clamp on CHO cells stably expressing hERG
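Also: peak tail current of the secondary pulse compared with the same well before compound.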

human ether-à-go-go-related gene (hERG) potassium channel, sequence (Q12809 whole entry, looked up): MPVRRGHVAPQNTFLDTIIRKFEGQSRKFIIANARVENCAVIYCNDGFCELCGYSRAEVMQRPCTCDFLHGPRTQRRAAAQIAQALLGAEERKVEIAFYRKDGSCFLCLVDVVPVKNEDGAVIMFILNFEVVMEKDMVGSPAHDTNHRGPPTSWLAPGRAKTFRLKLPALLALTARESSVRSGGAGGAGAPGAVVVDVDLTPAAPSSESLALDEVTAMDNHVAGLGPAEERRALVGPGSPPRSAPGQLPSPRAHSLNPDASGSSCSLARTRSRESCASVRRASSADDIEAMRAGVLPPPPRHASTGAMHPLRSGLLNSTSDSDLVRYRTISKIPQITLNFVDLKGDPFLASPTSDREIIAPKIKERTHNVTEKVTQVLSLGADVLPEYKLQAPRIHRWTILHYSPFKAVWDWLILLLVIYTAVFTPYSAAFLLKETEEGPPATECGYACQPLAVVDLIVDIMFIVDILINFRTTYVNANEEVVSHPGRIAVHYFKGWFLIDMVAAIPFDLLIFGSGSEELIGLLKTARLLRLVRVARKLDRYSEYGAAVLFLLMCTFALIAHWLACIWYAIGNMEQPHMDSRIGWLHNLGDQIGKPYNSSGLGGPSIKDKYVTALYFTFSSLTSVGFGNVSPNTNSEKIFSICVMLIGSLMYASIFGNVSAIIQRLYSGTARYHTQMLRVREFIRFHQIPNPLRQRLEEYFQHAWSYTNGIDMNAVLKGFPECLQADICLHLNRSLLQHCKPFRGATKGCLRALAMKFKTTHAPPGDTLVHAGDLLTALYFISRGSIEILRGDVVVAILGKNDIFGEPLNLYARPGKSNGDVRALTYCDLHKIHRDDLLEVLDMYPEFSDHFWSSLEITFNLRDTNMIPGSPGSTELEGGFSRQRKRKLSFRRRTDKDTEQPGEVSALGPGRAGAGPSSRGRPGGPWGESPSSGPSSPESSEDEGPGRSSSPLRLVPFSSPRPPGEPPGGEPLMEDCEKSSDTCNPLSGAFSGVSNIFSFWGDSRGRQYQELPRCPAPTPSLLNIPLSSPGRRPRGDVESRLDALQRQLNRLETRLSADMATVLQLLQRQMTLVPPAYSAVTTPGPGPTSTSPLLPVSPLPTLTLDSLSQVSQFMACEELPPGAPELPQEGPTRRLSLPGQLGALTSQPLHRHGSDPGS

Row | Structure (SMILES) | hERG current change (%, negative = inhibition) at 10uM [%]
1 | Cc1nc(NC(=O)Nc2ccc(Cl)cc2)sc1C | 10.9
2 | Cc1nc2ccccc2nc(=O)c1NNc1ccc([N+](=O)[O-])cc1 | -1.1
3 | Cn1c(SCc2cccc(C#N)c2)nc2ccccc2c1=O | -2.43
4 | O=C(CN1C(=O)NC2(CCCCC2)C1=O)NCc1cccs1 | 5.87
5 | Cc1ccc(CNC(=O)c2ccc(NC(=O)C3=CSCCO3)cc2)cc1 | 0.396
6 | COc1ccc(N2C(=O)NC(NC(=O)C(C)(C)C)(C(F)(F)F)C2=O)cc1 (stereo not shown) | 35.2
7 | CC(=O)Nc1ccc(NC(=O)CSc2ccc3nnc(CCNC(=O)c4ccccc4)n3n2)cc1 | 4.98
8 | CC(=O)Nc1ccc(/C(C)=N/NC(=O)c2ccncc2)cc1 | 10.5
9 | NC(=O)Cn1nc2sc3ccccc3n2c(=O)c1=O | 12.6
10 | CCCn1c(N)c(C(=O)CN(C)CC(=O)Nc2c(Cl)cccc2Cl)c(=O)[nH]c1=O | -9.48
11 | Cc1nc2ncnn2c(Nc2ccc3c(c2)OCO3)c1Cc1ccccc1 | -55.1
12 | Cc1cc2ccccc2c(=O)n1CC(=O)Nc1ccc2c(c1)OCO2 | -2.97
13 | O=C(COc1coc(CN2CCN(c3cccc(Cl)c3)CC2)cc1=O)NC1CCCC1 | -24.9
14 | COc1ccc(Cc2nnc(SCc3ccc([N+](=O)[O-])cc3)o2)cc1 | -26.2
15 | Cc1nc(-c2ccc(Cl)cc2)sc1C1(C)CC(c2cccc([N+](=O)[O-])c2)=NO1 (stereo not shown) | 9.75
16 | Cc1ccccc1OCC(=O)Nc1ccccc1CO | 11.5
17 | CCN(CC(=O)Nc1ccccc1OC)C(=O)CN1C(=O)NC2(CCCC2)C1=O | -37.9
18 | CC(=O)Nc1ccc(-c2nnn(CC(=O)c3ccc(F)cc3)n2)cc1Cl | 3.95
19 | CCOc1ccc(NC(C)c2cc(Cl)ccc2O)cc1 (stereo not shown) | 5.68
20 | CCOC(=O)CCc1c(C)c2ccc(OC3CCCCC3=O)cc2oc1=O (stereo not shown) | 18.7
21 | CCOC(=O)c1oc2nc3c(cc2c1N)CCCC3 | 9.43
22 | O=c1ccn([C@@H]2O[C@H](CO)[C@@H](O)[C@H]2O)c(=O)[nH]1 | 13.5
23 | CCCN1CCCC[C@H]1C(=O)Nc1c(C)cccc1C.Cl | -22
24 | Cc1cc(C)n(C(=O)CCCCCCCC(=O)n2nc(C)cc2C)n1 | 0.265
25 | O=C(O)CCCC(=O)NCCc1ccncc1 | 12.6
